Laboratory results as given in PubChem BioAssay AID624202 (National Center for Advancing Translational Sciences (NCATS), 2012).
The campaign covered roughly 380,000 compounds. About 4,000 (1.1%) were called active. Inconclusive results, whose numbers are uncertain, are shown with a selection of clear calls. The call rests on the fitted dose curve; in most records, active means well fitted activation curve with a large enough effect; inconclusive means small, poorly fitted or top-dose-only effect; inactive means no such curve, though single readings can be large or run the other way. A potency beside an inconclusive call is a rough fit, not a confirmed value.

Assay: qHTS Assay to Identify Small Molecule Activators of BRCA1 Expression; further: nearly all actives have a fitted effect of over 80% in size
Conditions: MCF7-BRCA1-FFLuc reporter, luminescence, 48 h; activation: at 46.1 µM (top of the series), scaled: vehicle 0%, 10 µM genistein 100% unless noted
Summary of the method: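 Cells: MCF7-BRCA1-FFLuc, 2000/well. Exposure: 48 h, 37 °C, 5% CO2. Read: luminescence, 15 min post-substrate. Controls: genistein 10 microM (maximal activation), DMSO (neutral).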
Potency means the concentration at half of the fitted maximal effect; tags describe the fitted curve by direction and shape.

SMILES | Potency | activation
COc1ccc2nc(N3CCCCC3)c(C#N)cc2c1 | active: 11.2 µM | 
c1ccc(-c2n[nH]c(-c3ccccn3)n2)cc1 | inconclusive: 1.58 µM [activator, partial curve, poor fit] | 
C/C(=N/NC(=O)c1cccs1)c1ccc(N2CCOCC2)cc1 | inconclusive: 10 µM [activator, partial curve, poor fit] | 
Cc1ccc(NC2=C/C(=N/S(=O)(=O)c3cccs3)c3ccccc3C2=O)cc1 |  | inactive: -103%
O=C(Nc1ccc2c(c1)OCCO2)c1cnc2ccccn2c1=O | inconclusive: 0.562 µM [activator, full curve, poor fit] | 
COc1ccccc1C(=O)Nn1cnc2ccccc2c1=O | active: 10 µM | 
Cc1ccc(N2CN=C(c3ccccc3)NC2=S)cc1 | active: 11.2 µM | 
CCN(CC)C(=O)CSc1nnc(-c2c[nH]c3ccccc23)o1 | inconclusive: 11.2 µM [activator, partial curve, poor fit] | 
Cc1ccc(NC(=O)c2cccs2)cc1 | active: 2.24 µM | 
O=C(C[n+]1ccccc1Cl)c1ccc(I)cc1 |  | inactive: 3.64%
COc1ccc(CN(C(=O)c2cc3ccccc3oc2=O)C2CCS(=O)(=O)C2)cc1OC (stereo not given) | inconclusive: 17.8 µM [activator, partial curve, poor fit] | 
NS(=O)(=O)c1ccc(N=NN2CCCCC2)cc1 | active: 10 µM | 
CS(=O)(=O)N1N=C(c2cccs2)CC1c1ccc(Cl)o1 (stereo not given) | inconclusive: 14.1 µM [activator, single point] | 
COc1ccc2nc(Nc3ccccc3)sc2c1 | inconclusive: 3.55 µM [activator, full curve, poor fit] | 
CSc1ccc(Cn2nnc(C(=O)Nc3ccc(C)cc3Cl)c2N)cc1 | inconclusive: 1.26 µM [activator, partial curve, poor fit] | 
CC[C@]1(O)C[C@@H]2CN(CCc3c([nH]c4ccccc34)[C@@](C(=O)OC)(c3cc4c(cc3OC)N(C)[C@H]3[C@@](O)(C(=O)OC)[C@H](OC(C)=O)[C@]5(CC)C=CCN6CC[C@]43[C@@H]65)C2)C1 |  | inconclusive: -72.5% [activator]
Cc1ccccc1OCC(O)Cn1nnc2ccccc21 (stereo not given) | active: 12.6 µM | 
O=C(Nc1ccc2c(c1)OCO2)c1cnn2c(C(F)(F)F)cc(-c3ccco3)nc12 |  | inactive: -11.5%
O=C(Cc1cccs1)N1CCN(c2cccc(Cl)c2)CC1 |  | inactive: 1.41%
CNC(=S)Nc1cccc(C(=O)OC)c1 | active: 7.08 µM | 
CC(=O)c1cccc(NC(=O)c2cc(-c3ccco3)on2)c1 | active: 10 µM | 
O=C(/C=C/c1ccc([N+](=O)[O-])cc1)Nc1ncc([N+](=O)[O-])s1 |  | inconclusive: -78.2% [activator]
Fc1ccc(-n2nnc(-c3cccnc3Cl)n2)cc1 | inconclusive: 2.51 µM [activator, partial curve, poor fit] | 
CCCOc1ccc(CNC(=O)Cc2cccs2)cc1 | active: 7.94 µM | 
COc1cccc(-n2c(SCC(=O)Nc3nnc(C)s3)nc3c([nH]c4ccccc43)c2=O)c1 |  | inactive: -29.1%

SMILES | Potency | activation
CCOC(=O)Nc1ccc2nc(N3CCCCCC3)sc2c1 | inconclusive: 15.8 µM [activator, partial curve, poor fit] | 
O=C(/C=C/c1ccccc1)OCC(=O)c1c[nH]c2ccccc12 |  | inactive: -23.2%
C(#CC1CCCC1)c1ccc2c(c1)COc1c3ccccc3nn1-2 | inconclusive: 3.16 µM [activator, partial curve, poor fit] | 
Cc1nnc(SCc2cccc(CSc3nnc(C)s3)c2)s1 | inconclusive: 11.2 µM [activator, partial curve, poor fit] | 
O=C(NC(=S)Nc1ncc(Br)cc1Br)c1cncc(Br)c1 |  | inactive: -49.7%
Cc1ccsc1/C=N/Nc1ncc(Cl)cc1Cl | inconclusive: 2 µM [activator, partial curve, poor fit] | 
C=CCNC(=O)C1CCN(c2nc(C)cc(-c3ccccc3)n2)CC1 | inconclusive: 0.562 µM [activator, full curve, poor fit] | 
Cc1ccc(NC(=O)CSc2ncc3ccccn23)cc1C | inconclusive: 11.2 µM [activator, partial curve, poor fit] | 
COc1cccc(C(=O)O/N=C(\N)c2ccncc2)c1OC | inconclusive: 14.1 µM [activator, partial curve, poor fit] | 
COc1ccc(CCn2c(-n3nc(C)cc3C)nc3c2c(=O)[nH]c(=O)n3C)cc1 |  | inactive: -60.1%
Cc1nc(-c2ccc(NC(=O)c3ccccc3)cc2)cs1 | inconclusive: 1.26 µM [activator, full curve, poor fit] | 
COc1ccc(C(=O)/C=C/Nc2cc(C)on2)c(OC)c1 | inconclusive: 12.6 µM [activator, partial curve, poor fit] | 
O=c1c2ccccc2nc(-c2ccco2)n1Cc1ccccc1 | active: 7.94 µM | 
Cc1oc2c(C)c3oc(=O)c(CCC(=O)O)c(C)c3cc2c1-c1ccccc1 |  | inactive: -7.31%
Cc1nc2cc(-c3ccccc3)sc2c(=O)n1N |  | inconclusive: -97.2% [activator]
O=C(Nc1ccc2c(c1)OCO2)NC1CCN(Cc2ccccc2)CC1 | inconclusive: 31.6 µM [activator, single point] | 
O=c1c2ccccc2nc(COc2ccccc2)n1/N=C/c1ccco1 | inconclusive: 11.2 µM [activator, partial curve, poor fit] | 
c1ccc2nc(-c3ccncc3)ccc2c1 | inconclusive: 15.8 µM [activator, single point] | 
COc1ccc(/C=N/NC(=O)c2ccc[nH]2)cc1 | inconclusive: 1.58 µM [activator, full curve, poor fit] | 
CCOc1ccc2nc(N/C(N)=N/S(C)(=O)=O)nc(C)c2c1 | inconclusive: 12.6 µM [activator, partial curve, poor fit] | 
O=C(Nc1ccc(Cl)cc1)N1CCC(c2ccccc2)C1 (stereo not given) | inconclusive: 1.12 µM [activator, full curve, poor fit] | 
CC1Cc2ccccc2N1C(=O)CSc1ncc(-c2ccc(F)cc2)n1C (stereo not given) | inconclusive: 1.58 µM [activator, full curve, poor fit] | 
Nc1ccc2nc(CCc3ccccc3)[nH]c2c1 | inconclusive: 20 µM [activator, single point] | 
COc1ccccc1CNc1nccn(-c2ccccc2)c1=O |  | inactive: 6.55%
Cc1ccc(NC(=O)CN2C(=O)CC(C)Sc3ccccc32)c(C)c1 (stereo not given) |  | inactive: -19.1%

SMILES | Potency | activation
COC(=O)c1c(NC(=O)c2ccco2)sc(C(=O)Nc2ccc(F)cc2)c1C | inconclusive: 1 µM [activator, full curve, poor fit] | 
Nc1nc(-c2cc3ccccc3o2)cs1 | inconclusive: 2 µM [activator, partial curve, poor fit] | 
CCOC(=O)c1[nH]c2ccc(OC)cc2c1NC(=O)c1ccccc1C(=O)O | inconclusive: 14.1 µM [activator, partial curve, poor fit] | 
CCCC(C)NC(=O)CN(Cc1ccco1)S(=O)(=O)c1ccccc1 (stereo not given) |  | inactive: -1.53%
O=C1C2C3C=CC(C3)C2C(=O)N1c1ccc(-c2nc3ccccc3o2)cc1 (stereo not given) | inconclusive: 1.41 µM [activator, full curve, poor fit] | 
O=C(CN1CCN(Cc2ccccc2Cl)C1=O)NC1CCCCCC1 | active: 11.2 µM | 
O=C(c1ccco1)N1CCN(c2ccc(Cl)cc2)CC1 | active: 11.2 µM | 
O=C(CCNC(=O)c1ccccc1Cl)NCc1ccncc1 |  | inactive: 13.8%
CCc1ccc(NC(=O)C(=O)NCC2CCCO2)cc1 (stereo not given) | inconclusive: 3.16 µM [activator, partial curve, poor fit] | 
Fc1ccc(/C=C/c2nnc(-c3cccs3)o2)cc1 | active: 2 µM | 
CN(C)c1ccc(N=Nc2cccc3ccoc23)cc1 | inconclusive: 31.6 µM [activator, single point] | 
N#Cc1ccc(OCCN2CCc3ccccc3C2)cc1 | inconclusive: 12.6 µM [activator, partial curve, poor fit] | 
Fc1ccccc1CSc1ncnc2c1ncn2C1CCCCO1 (stereo not given) | inconclusive: 1.26 µM [activator, full curve, poor fit] | 
CC(C)C(=O)Nc1ccc(C(=O)Nc2nnc(C(C)C)s2)cc1 | inconclusive: 10 µM [activator, partial curve, poor fit] | 
CCCCNC(=S)NC(C)(C)CO |  | inactive: -3.17%
Fc1ccccc1NC(=S)NCCc1ccccc1 | inconclusive: 12.6 µM [activator, partial curve, poor fit] | 
O=C(Nc1ccc2ccccc2c1)c1ccc(Br)o1 | inconclusive: 10 µM [activator, partial curve, poor fit] | 
CCOc1ccc(S(=O)(=O)N2CCN(c3nc(-c4ccccc4)nc4ccccc34)CC2)cc1OCC |  | inactive: 0%
CCCC1(C)C(C#N)C(=O)NC(=O)C1C#N (stereo not given) |  | inactive: 6.41%
CCn1c(O)c(C=Nc2ccccc2)sc1=S | active: 3.16 µM | 
CCc1nnc(NC(=O)OCc2ccccc2)s1 | inconclusive: 12.6 µM [activator, partial curve, poor fit] | 
O=C(C1CCC(CNS(=O)(=O)c2cccc3nsnc23)CC1)N1CC=C(c2ccccc2)CC1 (stereo not given) |  | inactive: -33%
COc1cc(C2Nc3ccccc3C(=O)N2Cc2ccco2)cc(OC)c1OC (stereo not given) |  | inactive: -11.5%
CCOC(=O)c1cccc(NC(=O)CCc2ccccc2)c1 | inconclusive: 17.8 µM [activator, partial curve, poor fit] | 
CC(=O)O/N=C(\N)c1ccc(-c2csnn2)cc1 | active: 11.2 µM | 
